Screen size: about 48,000 compounds; about 120 (0.25%) were called active. Inconclusive results (about 4%) are left out. Calls follow the shape of the dose curve; as a rule, active = well fitted activation curve with a large enough effect; inconclusive = small, poorly fitted or top-dose-only effect, or another doubt; inactive = no such curve, though single readings can be large or run the other way. The list shows a part of the results.
Assay: Primary qHTS for Identification of Small Molecule Activators of Huntingtin-Antisense Promoter Activity; also: nearly all actives have a fitted effect of over 55% in size
Settings: HEK293 HTT-AS promoter firefly luciferase reporter, 24 h; series mostly up to 57.5 µM; activity change, positive = activation: at the top concentration
Source text: Assay Provider: Russell L. Margolis M.D.
Department Neurology, Johns Hopkins University School of Medicine, Baltimore, MD
Huntington's Disease (HD) is a neurodegenerative disorder caused by a CAG repeat expansion in exon 1 of huntingtin (HTT). While there are currently no disease-modifying treatments for HD, recent efforts have focused on development of nucleotide-based therapeutics to lower HTT expression. As an alternative to siRNA or oligonucleotide methods, we hypothesized that suppression of HTT expression might be accomplished by small molecules that either (1) directly decrease HTT expression by suppressing HTT promoter activity or (2) indirectly decrease HTT expression by increasing the promoter activity of HTT-AS, the gene antisense to HTT that appears to inhibit expression of HTT.
We developed and employed a high throughput screen for modifiers of HTT and HTT-AS promoter activity using luminescent reporter HEK293 cells; of the 52,041 compounds tested, we identified 898 replicable hits. We used a rigorous stepwise approach to assess compound toxicity and the capacity of the compounds to specifically lower huntingtin protein in 5 different cell lines, including HEK293 cells, HD lymphoblastoid cells, mouse primary neurons, HD iPSCs differentiated into cortical-like neurons, and HD hESCs. We found no compounds which were able to lower huntingtin without lowering cell viability in all assays, though the potential efficacy of a few compounds at non-toxic doses could not be excluded.
SEQUENCE No. (1, 2, 3, etc.); […] (e.g., Cells, Incubation, Reagent, etc.); VALUE and DESCRIPTION.
1; Reagent; 4 uL; 2,500 Hek293 luciferase reporter cells per wells
3; Compound; 23 nL; Control inhibitor / compound library
5; Reagent; 2.5 uL; Firefly Luc reagent; Dual-Glo Luciferase Reporter Assay System (Promega)
6; Time; 10 min; room temperature incubation
7; Detection; Luminescence; FLuc
NOTES (numbers refer to sequence above)
1; High-throughput screening, measuring luminescence from a Hek293 luciferase reporter, was performed in 1,536 well white-walled tissue-culture treated plates. 2,500 cells were plated in 4 µL of Opti-MEM per well using a Multidrop Combi Reagent Dispenser (ThermoFisher).
2; Assay plates were cultured for 24 hours.
3; Control inhibitor (PTC124; final concentration of 50 uM) and compound library (at final concentrations of 460 nM - 57.5 uM) were added to the assay plate using the Kalypsis Pintool Robotic System equipped with 1536 pinheads.
4; Cells were then incubated for 24 hours at 37 degrees C prior to luminescence measurements.
5; In all cases, luminescence was measured using the Dual-Glo Luciferase Reporter Assay System (Promega) following the manufacturer's instructions.
6; Room temperature incubation.
7; Luminescence signal was obtained using the PerkinElmer ViewLux plate reader. Results were normalized to vehicle control (0% activity) and zero RLU (-100% activity).
Potency is read from the fitted curve at half-maximal effect.

Structure (SMILES)	activity change, positive = activation	Potency
Cc1cccc(NC(=O)c2ccc(-c3nc(CSc4ccccc4)c(C)o3)cc2)c1C	inactive: 0%	
Cc1nc2sc(C(N)=O)c(N)c2c(-c2ccc(Br)cc2)c1C(=O)Nc1ccc(Cl)cc1	inactive: -48.9%	
CSc1ccc(CNC(=O)CCn2c(=O)c3cccn3c3ccc(F)cc32)cc1	inactive: -17.7%	
Cc1ccccc1C(=O)Nc1ccc2c(c1)CCCN2C(=O)c1cccs1	inactive: -11.6%	
COc1ccc(C(=O)N2CCC(c3nc(-c4ccc(S(=O)(=O)N5CCCC5)cc4)no3)CC2)cc1	inactive: -24.3%	
COC(=O)c1cc2occc2n1Cc1cccc(C)c1	inactive: -20.9%	
COCCNC(=O)CCN1C(=O)c2cccnc2Oc2ccc(C)cc21	inactive: -2.86%	
COc1ccc(C(=O)Nc2ccc(-c3nc4ccccc4s3)cc2C)cc1Cl		active: 1000 nM
COC(=O)c1cc(-c2ccc(OC)c(OC)c2)c2c(=O)[nH]c(=O)n(C)c2n1	inactive: -1.73%	
C[N+]1(CC2COC(c3ccccc3)(C3CCCCC3)O2)CCCCC1 (stereo unspecified)	inactive: 1.15%	
CCC(=O)N1CCc2cc(S(=O)(=O)NC(CC(C)C)C(=O)NCc3ccc(F)cc3)ccc21 (stereo unspecified)	inactive: -2.31%	
Cc1ccc(NC(=O)Cn2c(=O)n(Cc3nc(C)no3)c(=O)c3cc4c(cc32)OCO4)c(Cl)c1	inactive: -12%	
Cc1cccc(C)c1NC(=O)Cn1c(=O)n(Cc2ccco2)c(=O)c2ccc(C(=O)NC3CCCC3)cc21	inactive: -21.9%	
Cc1ccc(S(=O)(=O)c2nc(-c3ccco3)oc2SCC(=O)Nc2ccc(F)cc2)cc1	inactive: 2.93%	
O=C(CCn1c(=O)c2sccc2n(Cc2cccc(F)c2)c1=O)NCc1ccc2c(c1)OCO2	inactive: -6.31%	
CCOc1ccc(CNC(=O)C2CCCN(S(=O)(=O)N(C)c3ccc(F)cc3)C2)cc1OC (stereo unspecified)	inactive: -24.7%	
COc1cccc(Cn2c(NCc3ccc(C)cc3)nc3c2c(=O)n(C)c(=O)n3C)c1	inactive: 14.3% [at 11.5 µM, percent change from vehicle, -100% = no light]	
CC(=O)c1ccc(NC(=O)c2ccc(-c3nc(COc4ccc(C)cc4)c(C)o3)cc2)cc1	inactive: -9.72%	
CC[C@]12CCCN3CCc4c(n(c5ccccc45)[C@@](O)(C(=O)OC)C1)[C@@H]32	inactive: -4.9%	
Cc1nn(-c2ccc3nnc(C)n3n2)c(C)c1CCC(=O)Nc1ccc(OC(F)(F)F)cc1	inactive: -16.3%	
CCOC(=O)c1cnc2c(ccc3ccccc32)c1Nc1ccc(Cl)cc1	inactive: -5.2%	
CCNc1nc(NC(C)(C)C)nc(Oc2ccc(=O)n(C)n2)n1	inactive: -8.98%	
O=C(NCCc1ccccc1)C(=O)NCC(c1ccc2c(c1)OCO2)N1CCOCC1 (stereo unspecified)	inactive: -6.78%	

Structure (SMILES)	activity change, positive = activation	Potency
CC1CCN(S(=O)(=O)c2nnc(NC(=O)c3cccc(Br)c3)s2)CC1	inactive: -54.5%	
CCS(=O)(=O)N1CCc2cc(C(=O)NCCc3ccc(OC)cc3)ccc21	inactive: -25.6%	
COc1cc(NC(=O)CC(C)n2nc(C)cc2C)cc(OC)c1 (stereo unspecified)	inactive: -4.8%	
Cc1ccc(NC(=O)Cn2c(=O)n(CCC(=O)NCc3ccccc3Cl)c(=O)c3ccccc32)cc1	inactive: -54.6%	
CCOc1ccccc1C(=O)N(Cc1ccccc1F)C1CCS(=O)(=O)C1 (stereo unspecified)	inactive: -17%	
COc1cc(NC(=O)C(CCSC)NS(=O)(=O)c2ccc3c(c2)oc(=O)n3C)cc(OC)c1 (stereo unspecified)	inactive: -13.8%	
COc1ccc(Cl)cc1NC(=O)CSc1cn(CC(=O)N2CCCCCC2)c2ccccc12	inactive: -47%	
COc1ccc(NC(=O)CCc2c(C)nc3nc(CNC(=O)OC(C)(C)C)nn3c2C)cc1OC	inactive: -5.08%	
COc1ccc(CC2C(=O)Nc3ccc(Br)cc32)cc1OC (stereo unspecified)	inactive: -17.6%	
O=C(Nc1ccc(F)c(Cl)c1)C1CCCN(c2cnccn2)C1 (stereo unspecified)	inactive: 8.83%	
COc1ccc(S(=O)(=O)NCC(c2ccco2)N2CCN(c3ccc(F)cc3)CC2)cc1C (stereo unspecified)	inactive: -29.5%	
CCc1ccccc1NC(=O)N1CCN(C(=O)c2nsc3ccccc23)CC1	inactive: -29.1%	
CC(=O)N1CCCC1c1nc2ccccc2n1Cc1ccccc1C (stereo unspecified)	inactive: -17.2%	
CC1CCN(S(=O)(=O)c2ccc3c(ccn3CCC(=O)NCc3ccc(N(C)C)cc3)c2)CC1	inactive: -16.4%	
COc1ccc(CNC(=O)Cn2c(=O)cc(-c3ccccc3)c3c(C)nn(C)c32)cc1	inactive: -17%	
COc1ccc(S(=O)(=O)N(CC(=O)Nc2cccnc2)c2ccc(Cl)cc2)cc1	inactive: -29.1%	
CCOc1ccccc1CNC(=O)c1cccn1-c1nnc(N2CCCC2)s1	inactive: -16.3%	
Cc1cccc(N2CCN(C(=O)Cn3nc(Cc4cccnc4)c4ccccc4c3=O)CC2)c1C	inactive: -31.5%	
COc1ccc(NC(=O)Cn2c(=O)ccc3cc(S(=O)(=O)N4CCCC4)ccc32)cc1Cl	inactive: -38.8%	
CC(CCc1ccc(O)cc1)NCCc1ccc(O)c(O)c1 (stereo unspecified)	inactive	
CCc1ccc2oc(C(=O)Nc3ccccc3C(=O)OC)cc(=O)c2c1	inactive: 9.01% [at 11.5 µM, percent change from vehicle, -100% = no light]	
O=C(Nc1ccc(Cl)c(C(F)(F)F)c1)C1CCN(S(=O)(=O)c2cccc3nonc23)CC1	inactive: -57.8%	
CCCNS(=O)(=O)Nc1ncnc(OCCOc2ncc(Br)cn2)c1-c1ccc(Br)cc1	inactive: -6.78%	

— PubChem BioAssay AID1508624 (National Center for Advancing Translational Sciences (NCATS), 2021)
